# Measured values: article PMC6919601, “Identification of Plasmodium dipeptidyl aminopeptidase allosteric inhibitors by high throughput screening” (PLoS ONE, 2019)
# Out of some 110,000 compounds screened, about 230 (0.21%) showed an effect of 50% or more. The list shows a part of the results.
# Biological target: DPAP1 (Plasmodium falciparum, UniProt Q8IIJ9)
# Experiment: primary screen, percent inhibition; read by cleavage of a fluorogenic dipeptide substrate; higher = more effect of the substance
# Parameters: species or system P. falciparum D10 trophozoite lysates; single well
# 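Also: 30 min substrate incubation versus DMSO and 10 µM JCP410 controls.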
# DPAP1, sequence (Q8IIJ9 whole entry, looked up): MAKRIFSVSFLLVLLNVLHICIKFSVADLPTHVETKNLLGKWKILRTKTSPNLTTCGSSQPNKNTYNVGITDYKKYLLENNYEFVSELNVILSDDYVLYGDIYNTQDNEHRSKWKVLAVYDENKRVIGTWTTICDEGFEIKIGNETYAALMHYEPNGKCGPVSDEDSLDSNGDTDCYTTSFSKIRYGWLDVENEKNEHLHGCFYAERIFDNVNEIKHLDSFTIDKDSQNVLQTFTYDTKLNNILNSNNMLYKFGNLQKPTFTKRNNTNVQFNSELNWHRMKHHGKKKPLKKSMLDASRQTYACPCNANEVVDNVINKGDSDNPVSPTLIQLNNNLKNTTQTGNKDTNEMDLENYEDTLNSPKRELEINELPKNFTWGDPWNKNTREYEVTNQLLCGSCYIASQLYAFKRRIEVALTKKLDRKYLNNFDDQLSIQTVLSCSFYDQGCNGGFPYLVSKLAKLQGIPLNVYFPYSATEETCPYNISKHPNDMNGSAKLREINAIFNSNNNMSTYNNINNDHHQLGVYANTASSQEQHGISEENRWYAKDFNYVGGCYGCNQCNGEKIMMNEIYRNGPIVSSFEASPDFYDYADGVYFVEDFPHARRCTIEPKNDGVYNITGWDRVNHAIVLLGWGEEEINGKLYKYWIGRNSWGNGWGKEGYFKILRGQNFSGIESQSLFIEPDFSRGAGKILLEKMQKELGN
row,Structure (SMILES),% Inhibition @ 10 uM [%]
1,Cc1cc(C)nc(NS(=O)(=O)c2ccc(NC(=O)c3c(C)nn(-c4ccccc4)c3C)cc2)n1,2.03
2,CCc1[nH]nc2c1C(c1ccc(Cl)s1)C(C#N)=C(N)O2 (centres unmarked),-6.51
3,CC(CCc1ccccc1)NCc1cccnc1 (centres unmarked),1.88
4,CCOc1ccc(C2C3=C(O)CCCC3=Nc3c2c(=O)n(C)c(=O)n3C)cc1 (centres unmarked),-1.47
5,COCCn1c(C)cc(C(=O)C(=O)Nc2nnc(CCOc3ccccc3)s2)c1C,-1.06
6,Clc1cc(Cl)c(OCc2nc3ccccc3[nH]2)cc1Cl,-3.27
7,COc1ccc(CCNC(=O)C2C3C=CC4(CN(Cc5cccs5)C(=O)C24)O3)cc1OC (centres unmarked),-3.79
8,COc1ccc(NC(=O)c2ccc[n+](C)c2)cc1OCC(C)C,-1.37
9,CCOC(=O)N1CCN(S(=O)(=O)c2cccs2)CC1,-3.93
10,OCCN1CCN(Cc2c(F)cccc2Cl)CC1,-2.02
11,C=CCNC(=O)c1cc2c(=O)n3ccccc3nc2n(CCC)c1=N,-1.47
12,NC(=O)CSc1nnc(-c2cccnc2)n1-c1cccc(C(F)(F)F)c1,-8.91
13,O=C(NCCCN1CCc2ccccc2C1)c1cnn(-c2ccccc2)c1-n1cccc1,1.8
14,Cc1cc(C(=O)N(C)Cc2ccccc2)c2c(C)nn(-c3ccccc3)c2n1,0.627
15,COc1ccccc1-c1c(C)oc2c(CN3CCCC(C)C3)c(O)ccc2c1=O (centres unmarked),-2.91
16,COc1ccc(-c2nnc(NC(=O)c3ccc(C(C)(C)C)cc3)s2)cc1OC,7.49
17,CC(C)(C)C1CCc2c(sc(NC(=O)c3ccc(F)cc3)c2C(=O)N2CCOCC2)C1 (centres unmarked),1.79
18,Cc1ccc(S(=O)(=O)N(CC(=O)N2CCC(C)CC2)c2ccc(C)c(C)c2)cc1,-1.41
19,CCNCCNC(=O)c1c(O)nc2ccccc2c1O,1.86
20,CCn1cc(/C=C(/C#N)C(=O)Nc2ccc(Cl)cc2)c2ccccc21,0.392
21,Cc1cc(NS(=O)(=O)c2ccc(NC(=O)c3ccc(C(C)(C)C)cc3)cc2)no1,1.83
22,CCSc1nc2ccc(C)cc2cc1C#N,0.851
23,O=C(CN1C(=O)c2ccccc2S1(=O)=O)Nc1ccccc1C(F)(F)F,5.07
24,OC1CCCN(Cc2c(Cl)cccc2Cl)C1 (centres unmarked),1.88
25,CCOc1ccc(-n2c(C)nc3cc(C(=O)NCc4ccco4)ccc32)cc1,-0.458
26,COc1ccc(Cn2ccc3nc(C)c(C(=O)N4CCN(c5ccccn5)CC4)cc3c2=O)cc1,-3.22

row,Structure (SMILES),% Inhibition @ 10 uM [%]
1,O=C(COc1ccc2ccccc2c1)NC12CC3CC(CC(C3)C1)C2,-0.28
2,C=CCNC(=O)c1cc(-c2ccc(OC)c(OC)c2)on1,-2.47
3,COCCNC(=O)C1CCCN(c2ncnc3onc(C)c23)C1 (centres unmarked),2.86
4,COc1ccc(-c2cs/c(=N\CCO)n2-c2ccccc2)cc1,-1.32
5,C=CCOc1ccc(C(=O)N(Cc2ccc(C)cc2)Cc2ccco2)cc1,6.01
6,Nc1nonc1-c1noc(-c2ccc(COc3cc(Cl)ccc3Cl)cc2)n1,5.09
7,CCOc1ccc2c(C)c(C(=O)O)oc2c1OCC,-4.61
8,CC1=CC(C)(C)N(CN2C(=O)c3ccccc3C2=O)c2cc(C)ccc21,-4.21
9,CC1CCN(S(=O)(=O)c2nnc(NC(=O)COc3ccccc3F)s2)CC1,-3.74
10,OCCN(CCc1ccccc1)Cc1ccccc1,-7.93
11,CCC(C)NC(=O)COCc1cc(-c2ccco2)on1 (centres unmarked),-9.49
12,Cc1oc(-c2cccs2)[n+]([O-])c1C,-3.18
13,CCN1CCN(c2nc3c(c(=O)n(C)c(=O)n3C)n2Cc2cc(OC)ccc2Cl)CC1,0.248
14,CC(=O)c1ccccc1OCCCN1CCN(C)CC1,-4.02
15,CCOC(=O)N1CCN(C(=O)Cn2cnc3c(nnn3-c3ccc(C)cc3)c2=O)CC1,-0.431
16,COc1ccc(N2C(N)=C(C#N)C(c3ccc4c(c3)OCO4)C3=C2CC(C)(C)CC3=O)c(OC)c1 (centres unmarked),2.69
17,CCOC(=O)c1c(N)sc2c1CCN(C(=O)OCC)C2,-1.66
18,COc1ccccc1/C(O)=C/c1nc2ccc(Cl)cc2nc1O,-3.41
19,CC(C)c1ccc(NC(=O)CN(CCc2ccccc2)S(C)(=O)=O)cc1,1.88
20,c1ccc(CCc2nc(-c3cccnc3)no2)cc1,0.884
21,CC1=C(C(=O)Nc2ccccc2)C(c2cccs2)C(C#N)=C(SCC(=O)Nc2ccccc2)N1 (centres unmarked),0.76
22,COc1ccc2c(c1)c(=O)oc1c(C)c(OC(C(=O)O)c3ccccc3)ccc12 (centres unmarked),36.4
23,Nc1n[nH]c(SCC(=O)Nc2nsc(-c3ccc(Cl)cc3)n2)n1,-2.75
24,CCOc1ccc(-c2cc(C(=O)OC)on2)cc1,17.4
25,Clc1ccc2c(c1)C(C1=NCCN1)c1ccccc1CS2 (centres unmarked),4.44
26,O=C(Nc1cccc(NC(=O)C2CC2)n1)C1CC1,3.26

row,Structure (SMILES),% Inhibition @ 10 uM [%]
1,COc1ccccc1-c1cc(C(F)(F)F)nc(S(=O)(=O)CCCC(=O)ON=C2CCCCC2)n1,12.3
2,CC(C)(C)c1ccc(S(=O)(=O)N2CCN(CCC#N)CC2)cc1,1.62
3,Cc1cc(C)c(S(=O)(=O)/N=C2/C=C(Br)C(=O)c3ccccc32)c(C)c1,3.54
4,Fc1c(F)c(F)c2nc3onc(-c4ccccc4)c3cc2c1F,-1.61
5,Cc1sc(NC(=O)c2ccccc2)c(CN2CCN(CCO)CC2)c1C,-4.66
6,Cc1cccc(NC(=O)Nc2sc3c(c2C(N)=O)CCCC3)c1,-2.82
7,Cc1cnc(-c2ccc(C(=O)O)cc2)nc1,-6.44
8,Cc1ccn2cc(-c3ccccc3)cc2c1,1.72
9,CCC(NC(=O)COc1ccccc1Cl)c1ccccc1 (centres unmarked),0.161
10,CCS(=O)(=O)c1cc([N+](=O)[O-])c(Sc2ccccc2N)s1,6.43
11,CCOC(=O)c1cnc2c(OC)cccc2c1NCCC1=CCCCC1,15.5
12,COc1cc(OC)cc(C(=O)Nc2cccc(Oc3ccc(C(=O)O)c(C(=O)O)c3)c2)c1,-4.52
13,COc1ccc(-c2cc(C(F)(F)F)nc(SCC(=O)NCc3cn(C)nc3C)n2)cc1OC,4.64
14,Cc1c(CCC(=O)NCc2ccccc2Cl)c(=O)oc2c(C)c(O)ccc12,4.13
15,CC(=O)OC[C@@H](C#N)NC(=O)[C@H](CC(C)C)NC(=O)c1cccc(Oc2ccccc2)c1,1.71
16,Brc1ccc(-c2nc3c(c(N4CCOCC4)n2)CCCC3)cc1,-9.26
17,O=C(NCCOc1ccc2ccccc2c1)c1cccnc1,2.57
18,O=C(c1cc2c(s1)-c1ccccc1S(=O)(=O)C2)N1CCC(Cc2ccccc2)CC1,-2.39
19,N#Cc1cccc(NC(=O)c2cccc(C(F)(F)F)c2)c1,5.08
20,COc1ccc(C)cc1NC(=O)CN(c1ccccc1C)S(=O)(=O)c1ccccc1,-10.5
21,O=C1NC(=O)/C(=C\c2cccs2)N1,-1.48
22,Cc1ccc2c(c1Br)C1(C(=O)N2)C(C#N)=C(N)Oc2[nH]nc(-c3ccc4c(c3)OCO4)c21 (centres unmarked),2.32
23,Cc1[nH]c2ccccc2c1SCCNC(=O)C12CC3CC(CC(C3)C1)C2,4.69
24,Nc1c(C(=O)O)sc2nc(-c3ccccc3)cc(-c3ccccc3)c12,10.8
25,CC1=C(C(=O)OCCCc2ccccc2)C(c2ccccc2F)CC(=O)N1 (centres unmarked),3.87
26,Cc1ccc(S(=O)(=O)NCC(=O)N2CCOCC2)cc1,-3.41

row,Structure (SMILES),% Inhibition @ 10 uM [%]
1,O=c1c(NCc2ccccc2Cl)c(-c2ccc3c(c2)CCCC3)c1=O,2.94
2,Cc1ccccc1CNS(=O)(=O)c1cc(C(=O)O)ccc1F,-2.5
3,COc1ccc(CCNC(=O)c2cc3sc(Cl)cc3n2C)cc1OC,-4.85
4,COC(=O)CN(C)CP(C)(=O)OC(C)C (centres unmarked),-5.23
5,CC1CCN(CCC(=O)c2ccc(O)cc2)CC1,-3.74
6,O=C(NC(c1ccccc1)c1ccccc1)c1cccs1,1.83
7,COc1ccc2c(C)c(C(=O)OCCN(C)C)oc2c1,3.34
8,O=C(NCCCN1CCCCC1)c1cc(-c2ccc(Cl)s2)nc2ccccc12,-4.06
9,NC(=O)COc1ccccc1OCC(N)=O,-1.29
10,O=C1CCC(c2ccccc2)=NN1Cc1c(F)cccc1Cl,-2.72
11,O=C(NCc1cccc(C(F)(F)F)c1)C1CCN(c2ncccn2)CC1,-2.71
12,CCCOc1ccc(C2C(C(=O)OC)=CN(C(C)C)C=C2C(=O)OC)cc1,-5.05
13,COCCCN1C(=O)c2[nH]nc(-c3ccccc3O)c2C1c1ccc(C(C)(C)C)cc1 (centres unmarked),2.02
14,O=C(Cn1c(=O)c2cccn2c2cccnc21)NCCN1CCCC1,-4.76
15,Cc1cccc2oc(Cc3nc4c(C)cccc4o3)nc12,-3.25
16,O=C1NC23CCCCC2C(/C1=C(O)\C=C\c1ccc(Cl)cc1)c1ccccc1O3 (centres unmarked),0.907
17,CCOc1ccccc1N1CCN(C(=O)c2ccc(Br)cc2)CC1,1.83
18,O=C(CS(=O)(=O)Cc1ccccc1)Nc1ccc(S(=O)(=O)Nc2nccs2)cc1,-1.06
19,COc1cc(CNCc2ccncc2)ccc1OCC(N)=O,0.032
20,CCN(C(=O)COc1ccccc1)c1nnc(-c2ccc(Cl)cc2)s1,-1.81
21,COCCNC(=O)c1ccc(Cn2c(SCc3cccc(OC)c3)nc3ccncc32)cc1,-3.34
22,C=CCNC(=O)C1CCN(c2cnccn2)CC1,0.758
23,Cc1ccccc1C(=O)Nc1ccccc1-n1cccc1,-10.1
